Test results reported in the supplement of paper PMC3334620.
Whole data set: some 33,000 sequences, median “E-score (-0.5 to 0.5)” near -0.032, cut for the highest 2% near 0.36. This is one part of the list.

What follows are sequences tested against T1, Sko1 (UniProt Q02100) (assay: PBM E-score (8-mer binding enrichment) (E-score (-0.5 to 0.5)); higher = stronger / more preferred TF binding; most listed sequences are background and not binding sites). Details: protein concentration: 200 nM; construct: GST-full length.
T1 sequence: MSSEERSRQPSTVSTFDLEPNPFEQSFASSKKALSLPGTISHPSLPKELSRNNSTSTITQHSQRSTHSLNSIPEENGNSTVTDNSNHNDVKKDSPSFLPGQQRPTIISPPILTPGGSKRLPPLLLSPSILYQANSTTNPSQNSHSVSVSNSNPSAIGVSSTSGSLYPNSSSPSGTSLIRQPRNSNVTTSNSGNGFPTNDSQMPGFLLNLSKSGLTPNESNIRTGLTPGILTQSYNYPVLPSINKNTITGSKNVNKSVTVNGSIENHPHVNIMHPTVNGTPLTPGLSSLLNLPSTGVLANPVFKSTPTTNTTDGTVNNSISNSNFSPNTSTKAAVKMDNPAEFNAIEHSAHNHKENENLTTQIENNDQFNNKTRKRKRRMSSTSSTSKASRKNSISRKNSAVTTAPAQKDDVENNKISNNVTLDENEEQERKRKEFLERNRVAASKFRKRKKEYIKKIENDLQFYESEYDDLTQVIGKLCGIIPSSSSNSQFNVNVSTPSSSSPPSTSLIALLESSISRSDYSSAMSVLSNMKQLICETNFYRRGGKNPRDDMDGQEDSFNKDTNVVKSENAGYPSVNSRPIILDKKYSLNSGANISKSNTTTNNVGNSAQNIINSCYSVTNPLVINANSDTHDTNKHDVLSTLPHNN
Experimental: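 Universal 'all 10-mer' protein binding microarrays (Agilent AMADID 015681) probed with GST-tagged S. cerevisiae TFs (full-length or DBD) made by in vitro transcription/translation (PURExpress), about 100-200 nM. Bound TF was detected with fluorescent anti-GST. Each ungapped 8-mer (which stands for itself and its reverse complement) is scored by the PBM enrichment score (E-score), a modified Wilcoxon-Mann-Whitney statistic from -0.5 to +0.5, computed with the Universal PBM Analysis Suite. Scale: above 0.35 generally sequence-specific binding.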

| Sequence | PBM E-score |
| --- | --- |
| AGCATGAC | 0.17 |
| CTGAGTCC | -0.0736 |
| GCAAGTAC | 0.106 |
| AATCGATC | 0.0563 |
| GAAAGGGC | -0.157 |
| AAGACAAG | 0.0626 |
| TTCTCCAA | -0.036 |
| GCAAGGCC | -0.282 |
| CGCTAACG | 0.268 |
| ATATCCAA | 0.165 |
| CCTAAACA | -0.0392 |
| AATTGTTC | 0.227 |
| TAGTCTAA | 0.0345 |
| CCGAGCGC | -0.192 |
| GAGGTAGC | -0.222 |
| CGGTCACA | -0.0474 |
| AATAGTGT | 0.115 |
| ACAAAACG | 0.347 |
| ACCGGTCC | -0.398 |
| GACTAACA | 0.0573 |
| CCTCTGTA | -0.16 |
| AGCAGACC | -0.16 |
| AAGTCGTG | 0.00032 |
| GCCAACAA | -0.143 |
| GGAGGGGA | -0.104 |

| Sequence | PBM E-score |
| --- | --- |
| CCAGCAAG | -0.194 |
| TGCGGTAA | 0.0179 |
| CCTATGCC | -0.3 |
| CACGGCCA | -0.354 |
| CCGACGAG | -0.201 |
| CGGGGCAG | -0.114 |
| CTGGAGGA | -0.246 |
| CTTGAATC | -0.0656 |
| TCATAGCA | 0.231 |
| CACCCAAG | -0.3 |
| GAGAACTA | 0.0285 |
| CAAGATCC | 0.0137 |
| TACCCCCA | -0.192 |
| AGCCTTAC | -0.204 |
| CGTGCTGA | 0.11 |
| GCCGGGAA | -0.3 |
| AAACGACG | 0.299 |
| AACCTAGG | -0.0381 |
| GATCCTGA | 0.113 |
| CCGAGGGC | -0.25 |
| CAGCATCC | -0.124 |
| ACTCCTGC | -0.0979 |
| AAGCAGAG | 0.0145 |
| ACGCGACA | 0.249 |
| GCACTTTA | 0.0809 |

| Sequence | PBM E-score |
| --- | --- |
| ATCTCGGG | -0.0957 |
| GCAGACCA | -0.111 |
| CATCTTAG | 0.108 |
| ATCGATAG | 0.0346 |
| GTTTACCA | 0.094 |
| AGCGTCCC | -0.14 |
| ATGCCAAT | -0.0575 |
| GAATAAAC | 0.0692 |
| GTAGGGGA | -0.186 |
| ATCACCTC | 0.175 |
| ACGCGACT | 0.155 |
| GCGTGGTA | -0.0393 |
| ACGAGGAA | 0.00288 |
| CCGTCGCA | -0.244 |
| CAATACGG | -0.0873 |
| AGCAAGTG | -0.0729 |
| CATTCGGG | -0.125 |
| ATTGGAGG | -0.123 |
| ACTAGCTC | 0.0539 |
| CCGTCTCA | -0.0524 |
| GCGCGTCA | 0.424 |
| AATTTATA | 0.275 |
| CATGAAGG | -0.108 |
| GCATCCAA | -0.193 |
| ATGCGACC | -0.011 |

| Sequence | PBM E-score |
| --- | --- |
| CGACTACC | -0.221 |
| CTTGTTAC | 0.094 |
| ATGGTTAA | 0.0259 |
| AAGGCCTT | -0.158 |
| AGGGTACG | 0.148 |
| ATCCTAGA | -0.0719 |
| ACAGTAGA | 0.164 |
| CAGTAGGG | -0.265 |
| ACGTCCCC | 0.126 |
| AGTGTGAC | 0.254 |
| GGCGCGGA | -0.283 |
| ATAGTCGG | -0.252 |
| CCGAAGCC | -0.319 |
| CAGTGCGA | -0.0618 |
| CCGGACTC | -0.16 |
| AGCTGATG | 0.0985 |
| AATCCCCT | -0.258 |
| AATTAGTC | 0.14 |
| GCCCAACA | -0.296 |
| CAGTACAG | -0.165 |
| CAGGCTTC | -0.242 |
| ACTGGTCA | -0.0838 |
| GATTATAA | 0.141 |
| AAAGGATA | 0.124 |
| AGCGGTAC | 0.045 |

| Sequence | PBM E-score |
| --- | --- |
| ATTGAGAG | -0.0822 |
| AAGGGCAT | -0.0336 |
| GTCTCAAC | -0.0146 |
| AGTCCGAT | -0.153 |
| AATCACAA | 0.0722 |
| CGGCTCAC | -0.176 |
| AATGGAAA | 0.0019 |
| CCGGGGAA | -0.271 |
| CGCGAGCC | -0.0768 |
| GCAGAGAA | 0.0458 |
| GCCGGTCC | -0.412 |
| ATACGGCA | 0.153 |
| AACACTAG | -0.0607 |
| ACGTGTAT | 0.414 |
| CCGCGCTA | -0.099 |
| CTAGATAA | 0.0553 |
| ATCCTCTG | -0.0709 |
| AATTGCAT | 0.115 |
| GCGATACA | 0.0437 |
| ATGGCCCC | -0.362 |
| CGAAGTAA | 0.15 |
| ACATCTGA | -0.139 |
| ATATCAAT | 0.245 |
| CAGAATTA | 0.097 |
| CAGTGGCA | -0.165 |

| Sequence | PBM E-score |
| --- | --- |
| AGGGATGA | 0.0451 |
| CAGCAAGG | -0.16 |
| GAGGAAGA | -0.0544 |
| ACAAATGT | 0.078 |
| GTTCCATA | -0.152 |
| AGCTGCAT | 0.0894 |
| CACCTACG | 0.336 |
| ATACTAGA | 0.219 |
| TTCCAAAA | 0.0151 |
| AACGACTG | -0.00169 |
| CGCGGGTA | -0.122 |
| AAATTTCC | 0.0298 |
| AGTAGGAT | 0.0173 |
| ATGAGTTA | 0.152 |
| GACTTCTC | -0.166 |
| CATTGTCA | 0.0571 |
| CGAAAGCA | -0.0654 |
| AGGTAGAC | -0.15 |
| ATAGGGTC | -0.273 |
| CAACGTGG | 0.23 |
| CCAACCCC | -0.0968 |
| ACCATTAC | 0.174 |
| TGCACCCA | -0.0673 |
| GAGCGGAC | -0.251 |
| TATATCGA | 0.173 |

| Sequence | PBM E-score |
| --- | --- |
| ATTCACTA | 0.113 |
| GTGTACCA | 0.156 |
| CCAGGACC | -0.313 |
| CTCGCGTA | 0.212 |
| GATGTGGC | -0.105 |
| AAAGCCCT | -0.31 |
| GCGTCCCA | -0.193 |
| TAGTATAA | 0.24 |
| CGTAAGAC | 0.4 |
| ATCTGGGG | -0.209 |
| TGAAACAA | 0.183 |
| TACGCAGA | 0.274 |
| AACCTCCG | -0.173 |
| GGACAACC | -0.179 |
| CGAGGCCC | -0.301 |
| CCCTGAGA | -0.263 |
| ATCCATGC | -0.0946 |
| CCAACGTA | 0.387 |
| AAGATCCG | -0.082 |
| GGTTTAGA | -0.143 |
| ACTGTGCC | -0.0308 |
| CTAACGAC | 0.108 |
| ACAGAGAC | -0.0712 |
| CGCTAAGC | -0.0386 |
| AGTCATTA | 0.032 |

| Sequence | PBM E-score |
| --- | --- |
| AGGACTGA | -0.146 |
| ACACTCGC | -0.116 |
| GTAGGTCA | 0.079 |
| CGGTGGTA | -0.154 |
| GCCAATCA | -0.0617 |
| GAGGCAGC | -0.2 |
| GAGTTGGA | -0.0363 |
| GACATCCA | 0.0111 |
| CATATCGC | 0.0243 |
| GGGGGAAC | -0.302 |
| ACCTGCAC | -0.126 |
| GAAATTGC | 0.133 |
| GGTTACAC | 0.0583 |
| AAACCACG | 0.174 |
| CCCGAGAC | -0.135 |
| ATTTGACG | 0.359 |
| GCAACTCC | -0.198 |
| CCTCCCTC | -0.137 |
| GAACCCAA | -0.145 |
| ATCAGATG | -0.021 |
| GGATCTCA | -0.271 |
| AATGCGGC | -0.067 |
| CGTGATAC | 0.234 |
| GTATGGGA | -0.13 |
| GCGCGAAC | -0.068 |

| Sequence | PBM E-score |
| --- | --- |
| ATTGTGCC | -0.198 |
| AGTGGTAG | -0.0361 |
| CAAAGTCG | -0.0592 |
| ATGGTAGG | -0.278 |
| ACCGAAAC | 0.00583 |
| TCCAACGA | 0.00689 |
| CAGTACGA | 0.13 |
| CTAGATTA | 0.194 |
| CTTAGGGC | -0.337 |
| CTATAAAC | 0.137 |
| CTACGCCC | -0.0734 |
| AACGGGAT | -0.0797 |
| TAGTTCGA | -0.0338 |
| AGTAGGGC | -0.158 |
| CCACCAGG | -0.371 |
| ACCCTTTG | -0.375 |
| CGTTTTAC | 0.209 |
| GTGAGTAA | 0.0274 |
| ACGTCGCC | 0.327 |
